Results as given in article PMC6155134.
These are yes or no findings as the source states them, for the method shown. In cells and extracts the contact can be indirect. Some binding calls cover weakened binding; strength is not graded here.

Protein sequences, listed by entry. Tags and fused reporters are not part of them. Lines headed by an entry give the natural chain unless they say otherwise; changes in a name come on top. Chains listed by the source or under a name are the forms on record and can include a tag or linker.
BCL11A-L (773 amino acids) (Q9H165, form named): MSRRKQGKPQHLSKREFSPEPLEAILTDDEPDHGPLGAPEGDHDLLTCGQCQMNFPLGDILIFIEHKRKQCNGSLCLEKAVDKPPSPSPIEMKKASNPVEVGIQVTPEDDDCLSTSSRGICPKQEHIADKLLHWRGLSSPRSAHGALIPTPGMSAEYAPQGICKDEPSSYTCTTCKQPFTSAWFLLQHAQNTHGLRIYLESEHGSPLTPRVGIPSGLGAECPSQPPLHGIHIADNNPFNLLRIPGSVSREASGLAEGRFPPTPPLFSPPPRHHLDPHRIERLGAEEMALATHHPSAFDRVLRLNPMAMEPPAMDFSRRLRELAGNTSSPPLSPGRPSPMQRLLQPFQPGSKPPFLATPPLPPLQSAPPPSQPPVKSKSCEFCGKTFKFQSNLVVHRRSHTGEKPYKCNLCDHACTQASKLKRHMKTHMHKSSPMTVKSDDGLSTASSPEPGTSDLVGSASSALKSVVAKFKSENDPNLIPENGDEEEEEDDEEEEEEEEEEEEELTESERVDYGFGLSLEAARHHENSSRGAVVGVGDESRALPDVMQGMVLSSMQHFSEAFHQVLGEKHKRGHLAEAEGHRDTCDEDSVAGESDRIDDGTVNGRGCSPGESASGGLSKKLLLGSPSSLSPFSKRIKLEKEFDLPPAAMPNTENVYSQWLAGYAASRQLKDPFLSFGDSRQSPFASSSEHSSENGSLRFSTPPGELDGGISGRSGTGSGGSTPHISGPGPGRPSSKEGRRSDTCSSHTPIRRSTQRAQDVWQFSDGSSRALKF

Target: BCL11A-L (773 amino acids) (human) (UniProt Q9H165)
Assay: FRET or BRET; BRET in live HEK293 cells transfected with equimolar YFP and Rluc fusion constructs; read 48 h after transfection, after 4 h at 37 °C with 60 µM EnduRen; corrected BRET ratio, YFP-NLS and Rluc-NLS as control proteins

Binder	binding
TBR1 p.N394* (domain or fragment, UniProt Q16650-1 1-393) MQLEHCLSPSIMLSKKFLNVSSSYPHSGGSELVLHDHPIISTTDNLERSSPLKKITRGMTNQSDTDNFPDSKDSPGDVQRSKLSPVLDGVSELRHSFDGSAADRYLLSQSSQPQSAATAPSAMFPYPGQHGPAHPAFSIGSPSRYMAHHPVITNGAYNSLLSNSSPQGYPTAGYPYPQQYGHSYQGAPFYQFSSTQPGLVPGKAQVYLCNRPLWLKFHRHQTEMIITKQGRRMFPFLSFNISGLDPTAHYNIFVDVILADPNHWRFQGGKWVPCGKADTNVQGNRVYMHPDSPNTGAHWMRQEISFGKLKLTNNKGASNNNGQMVVLQSLHKYQPRLHVVEVNEDGTEDTSQPGRVQTFTFPETQFIAVTAYQNTDITQLKIDHNPFAKGFRD	binds
TBR1 p.K228E (protein, UniProt Q16650-1 1-682) MQLEHCLSPSIMLSKKFLNVSSSYPHSGGSELVLHDHPIISTTDNLERSSPLKKITRGMTNQSDTDNFPDSKDSPGDVQRSKLSPVLDGVSELRHSFDGSAADRYLLSQSSQPQSAATAPSAMFPYPGQHGPAHPAFSIGSPSRYMAHHPVITNGAYNSLLSNSSPQGYPTAGYPYPQQYGHSYQGAPFYQFSSTQPGLVPGKAQVYLCNRPLWLKFHRHQTEMIITEQGRRMFPFLSFNISGLDPTAHYNIFVDVILADPNHWRFQGGKWVPCGKADTNVQGNRVYMHPDSPNTGAHWMRQEISFGKLKLTNNKGASNNNGQMVVLQSLHKYQPRLHVVEVNEDGTEDTSQPGRVQTFTFPETQFIAVTAYQNTDITQLKIDHNPFAKGFRDNYDTIYTGCDMDRLTPSPNDSPRSQIVPGARYAMAGSFLQDQFVSNYAKARFHPGAGAGPGPGTDRSVPHTNGLLSPQQAEDPGAPSPQRWFVTPANNRLDFAASAYDTATDFAGNAATLLSYAAAGVKALPLQAAGCTGRPLGYYADPSGWGARSPPQYCGTKSGSVLPCWPNSAAAAARMAGANPYLGEEAEGLAAERSPLPPGAAEDAKPKDLSDSSWIETPSSIKSIDSSDSGIYEQAKRRRISPADTPVSESSSPLKSEVLAQRDCEKNCAKDISGYYGFYSHS	binds
TBR1 p.Q418R (protein, UniProt Q16650-1 1-682) MQLEHCLSPSIMLSKKFLNVSSSYPHSGGSELVLHDHPIISTTDNLERSSPLKKITRGMTNQSDTDNFPDSKDSPGDVQRSKLSPVLDGVSELRHSFDGSAADRYLLSQSSQPQSAATAPSAMFPYPGQHGPAHPAFSIGSPSRYMAHHPVITNGAYNSLLSNSSPQGYPTAGYPYPQQYGHSYQGAPFYQFSSTQPGLVPGKAQVYLCNRPLWLKFHRHQTEMIITKQGRRMFPFLSFNISGLDPTAHYNIFVDVILADPNHWRFQGGKWVPCGKADTNVQGNRVYMHPDSPNTGAHWMRQEISFGKLKLTNNKGASNNNGQMVVLQSLHKYQPRLHVVEVNEDGTEDTSQPGRVQTFTFPETQFIAVTAYQNTDITQLKIDHNPFAKGFRDNYDTIYTGCDMDRLTPSPNDSPRSRIVPGARYAMAGSFLQDQFVSNYAKARFHPGAGAGPGPGTDRSVPHTNGLLSPQQAEDPGAPSPQRWFVTPANNRLDFAASAYDTATDFAGNAATLLSYAAAGVKALPLQAAGCTGRPLGYYADPSGWGARSPPQYCGTKSGSVLPCWPNSAAAAARMAGANPYLGEEAEGLAAERSPLPPGAAEDAKPKDLSDSSWIETPSSIKSIDSSDSGIYEQAKRRRISPADTPVSESSSPLKSEVLAQRDCEKNCAKDISGYYGFYSHS	no binding
TBR1 p.P542R (protein, UniProt Q16650-1 1-682) MQLEHCLSPSIMLSKKFLNVSSSYPHSGGSELVLHDHPIISTTDNLERSSPLKKITRGMTNQSDTDNFPDSKDSPGDVQRSKLSPVLDGVSELRHSFDGSAADRYLLSQSSQPQSAATAPSAMFPYPGQHGPAHPAFSIGSPSRYMAHHPVITNGAYNSLLSNSSPQGYPTAGYPYPQQYGHSYQGAPFYQFSSTQPGLVPGKAQVYLCNRPLWLKFHRHQTEMIITKQGRRMFPFLSFNISGLDPTAHYNIFVDVILADPNHWRFQGGKWVPCGKADTNVQGNRVYMHPDSPNTGAHWMRQEISFGKLKLTNNKGASNNNGQMVVLQSLHKYQPRLHVVEVNEDGTEDTSQPGRVQTFTFPETQFIAVTAYQNTDITQLKIDHNPFAKGFRDNYDTIYTGCDMDRLTPSPNDSPRSQIVPGARYAMAGSFLQDQFVSNYAKARFHPGAGAGPGPGTDRSVPHTNGLLSPQQAEDPGAPSPQRWFVTPANNRLDFAASAYDTATDFAGNAATLLSYAAAGVKALPLQAAGCTGRPLGYYADRSGWGARSPPQYCGTKSGSVLPCWPNSAAAAARMAGANPYLGEEAEGLAAERSPLPPGAAEDAKPKDLSDSSWIETPSSIKSIDSSDSGIYEQAKRRRISPADTPVSESSSPLKSEVLAQRDCEKNCAKDISGYYGFYSHS	binds
TBR1 p.N374H (protein, UniProt Q16650-1 1-682) MQLEHCLSPSIMLSKKFLNVSSSYPHSGGSELVLHDHPIISTTDNLERSSPLKKITRGMTNQSDTDNFPDSKDSPGDVQRSKLSPVLDGVSELRHSFDGSAADRYLLSQSSQPQSAATAPSAMFPYPGQHGPAHPAFSIGSPSRYMAHHPVITNGAYNSLLSNSSPQGYPTAGYPYPQQYGHSYQGAPFYQFSSTQPGLVPGKAQVYLCNRPLWLKFHRHQTEMIITKQGRRMFPFLSFNISGLDPTAHYNIFVDVILADPNHWRFQGGKWVPCGKADTNVQGNRVYMHPDSPNTGAHWMRQEISFGKLKLTNNKGASNNNGQMVVLQSLHKYQPRLHVVEVNEDGTEDTSQPGRVQTFTFPETQFIAVTAYQHTDITQLKIDHNPFAKGFRDNYDTIYTGCDMDRLTPSPNDSPRSQIVPGARYAMAGSFLQDQFVSNYAKARFHPGAGAGPGPGTDRSVPHTNGLLSPQQAEDPGAPSPQRWFVTPANNRLDFAASAYDTATDFAGNAATLLSYAAAGVKALPLQAAGCTGRPLGYYADPSGWGARSPPQYCGTKSGSVLPCWPNSAAAAARMAGANPYLGEEAEGLAAERSPLPPGAAEDAKPKDLSDSSWIETPSSIKSIDSSDSGIYEQAKRRRISPADTPVSESSSPLKSEVLAQRDCEKNCAKDISGYYGFYSHS	binds

Results, then the binder that gave them:

binding	Binder
no binding	TBR1 p.S351* (domain or fragment, UniProt Q16650-1 1-350) MQLEHCLSPSIMLSKKFLNVSSSYPHSGGSELVLHDHPIISTTDNLERSSPLKKITRGMTNQSDTDNFPDSKDSPGDVQRSKLSPVLDGVSELRHSFDGSAADRYLLSQSSQPQSAATAPSAMFPYPGQHGPAHPAFSIGSPSRYMAHHPVITNGAYNSLLSNSSPQGYPTAGYPYPQQYGHSYQGAPFYQFSSTQPGLVPGKAQVYLCNRPLWLKFHRHQTEMIITKQGRRMFPFLSFNISGLDPTAHYNIFVDVILADPNHWRFQGGKWVPCGKADTNVQGNRVYMHPDSPNTGAHWMRQEISFGKLKLTNNKGASNNNGQMVVLQSLHKYQPRLHVVEVNEDGTEDT
binds	TBR1 p.V356M (protein, UniProt Q16650-1 1-682) MQLEHCLSPSIMLSKKFLNVSSSYPHSGGSELVLHDHPIISTTDNLERSSPLKKITRGMTNQSDTDNFPDSKDSPGDVQRSKLSPVLDGVSELRHSFDGSAADRYLLSQSSQPQSAATAPSAMFPYPGQHGPAHPAFSIGSPSRYMAHHPVITNGAYNSLLSNSSPQGYPTAGYPYPQQYGHSYQGAPFYQFSSTQPGLVPGKAQVYLCNRPLWLKFHRHQTEMIITKQGRRMFPFLSFNISGLDPTAHYNIFVDVILADPNHWRFQGGKWVPCGKADTNVQGNRVYMHPDSPNTGAHWMRQEISFGKLKLTNNKGASNNNGQMVVLQSLHKYQPRLHVVEVNEDGTEDTSQPGRMQTFTFPETQFIAVTAYQNTDITQLKIDHNPFAKGFRDNYDTIYTGCDMDRLTPSPNDSPRSQIVPGARYAMAGSFLQDQFVSNYAKARFHPGAGAGPGPGTDRSVPHTNGLLSPQQAEDPGAPSPQRWFVTPANNRLDFAASAYDTATDFAGNAATLLSYAAAGVKALPLQAAGCTGRPLGYYADPSGWGARSPPQYCGTKSGSVLPCWPNSAAAAARMAGANPYLGEEAEGLAAERSPLPPGAAEDAKPKDLSDSSWIETPSSIKSIDSSDSGIYEQAKRRRISPADTPVSESSSPLKSEVLAQRDCEKNCAKDISGYYGFYSHS
binds	TBR1 p.S568* (domain or fragment, UniProt Q16650-1 1-567) MQLEHCLSPSIMLSKKFLNVSSSYPHSGGSELVLHDHPIISTTDNLERSSPLKKITRGMTNQSDTDNFPDSKDSPGDVQRSKLSPVLDGVSELRHSFDGSAADRYLLSQSSQPQSAATAPSAMFPYPGQHGPAHPAFSIGSPSRYMAHHPVITNGAYNSLLSNSSPQGYPTAGYPYPQQYGHSYQGAPFYQFSSTQPGLVPGKAQVYLCNRPLWLKFHRHQTEMIITKQGRRMFPFLSFNISGLDPTAHYNIFVDVILADPNHWRFQGGKWVPCGKADTNVQGNRVYMHPDSPNTGAHWMRQEISFGKLKLTNNKGASNNNGQMVVLQSLHKYQPRLHVVEVNEDGTEDTSQPGRVQTFTFPETQFIAVTAYQNTDITQLKIDHNPFAKGFRDNYDTIYTGCDMDRLTPSPNDSPRSQIVPGARYAMAGSFLQDQFVSNYAKARFHPGAGAGPGPGTDRSVPHTNGLLSPQQAEDPGAPSPQRWFVTPANNRLDFAASAYDTATDFAGNAATLLSYAAAGVKALPLQAAGCTGRPLGYYADPSGWGARSPPQYCGTKSGSVLPCWPN
